PubChem BioAssay AID504706 (National Center for Advancing Translational Sciences (NCATS), 2011)
Among all 320,000 compounds or so, about 200 (0.062%) were called active. The inconclusive results got no clear call from the source; some entries with a clear call stand among them for comparison. The call rests on the fitted dose curve; in most records, active means well fitted activation curve with a large enough effect; inconclusive means small, poorly fitted or top-dose-only effect; inactive means no such curve, though single readings can be large or run the other way. Potencies of inconclusive entries are left out as doubtful fits.

experiment: qHTS assay for re-activators of p53 using a Luc reporter; details: H1299 p53-A138V BP100-luciferase reporter, luminescence, 24 h; series mostly up to 92.2 µM; activity change, positive = activation: at the top concentration; further: nearly all actives have a fitted effect of over 45% in size; on activity change, positive = activation: % of control where 0% means no effect
Procedure, shortened: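 p53-null H1299 cells stably carrying temperature-sensitive p53-A138V and a BP100-luciferase reporter were pinned with compounds (4-point, 1:5 series) and held 24 hrs at 37 deg C. Luminescence was read 10 min after detection reagent.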
Potency means the concentration at half of the fitted maximal effect; tags describe the fitted curve by direction and shape.

SMILES	Potency	activity change, positive = activation
Cc1ccc2nc(-c3ccc(NC(=O)CCS(=O)(=O)c4ccccc4)cc3)sc2c1	inconclusive [activator, partial curve, poor fit]	–
CC(C)CCN1CCN(Cc2coc3ccccc3c2=O)CC1CCO (configuration not stated)	inconclusive [activator, single point]	–
COc1cc(NC(=O)C/C(C)=N/NC(=O)c2cccc(O)c2)c(OC)cc1Cl	inconclusive [activator, partial curve, poor fit]	–
CC(=O)Nc1cccc(NC(=O)C(=O)Nc2ccc3c(c2)N(C(=O)C2CC2)CCC3)c1	–	inactive: 16%
C/C(=N\NC(=O)c1ccccc1O)C1CC1	–	inactive: 28.2%
CCCn1c(NC(=S)Nc2ccccc2)nc2ccccc21	inconclusive [activator, partial curve, poor fit]	–
C[C@H](NC(=O)OC(C)(C)C)c1nnc(SCC(=O)c2ccc(Cl)cc2)o1	inconclusive [activator, single point]	–
COc1cccc2sc(Nc3nc4ccc(NC(C)=O)cc4s3)nc12	inconclusive [activator, partial curve, poor fit]	–
COc1ccc(-c2cn3cccc(C)c3n2)cc1Br	inconclusive [activator, partial curve, poor fit]	–
O=C(Nc1cc2c(cc1Cl)OCCCO2)c1ccc(F)cc1	inconclusive [activator, partial curve, poor fit]	–
COc1ccccc1-c1c(C(F)(F)F)oc2cc(OS(C)(=O)=O)ccc2c1=O	inconclusive [activator, partial curve, poor fit]	–
O=[N+]([O-])c1ccc(C2Oc3ccccc3C3CC(c4ccccc4)=NN32)s1 (configuration not stated)	inconclusive [activator, partial curve, poor fit]	–
CCCN(Cc1ccc(C)cc1)C(=O)c1ccc(CNS(=O)(=O)c2ccc(C(C)=O)cc2)cc1	inconclusive [activator, partial curve, poor fit]	–
Cc1cc(C)c2nc(NC(=O)c3ccc(OCC4CCCO4)cc3)sc2c1 (configuration not stated)	inconclusive [activator, partial curve, poor fit]	–
N=c1oc2ccccc2cc1C(=O)Nc1ccc(F)cc1	inconclusive [activator, partial curve, poor fit]	–
CCOC(=O)c1c(NC(=O)CN(CC)CC)sc2c1CCC2	–	inactive: 4.77%
Cc1ccc(NC(=S)NNc2ncc(C(F)(F)F)cc2Cl)cc1	–	inactive: -28.3%
O=C(c1c(Cl)nc2sccn12)N(C(=O)c1c(Cl)nc2sccn12)c1ccc(Cl)cn1	inconclusive [activator, partial curve, poor fit]	–
Fc1cccc(-c2cc3nc4c(c(NCc5ccco5)n3n2)CCCC4)c1	inconclusive [activator, partial curve, poor fit]	–
Cc1ccc(NC(=O)c2cc(N3C(=O)CCC3=O)ccc2N2CCOCC2)cc1	–	inactive: 0.236%
Cc1ccc(-c2cc3nc(-c4ccccc4)cc(N4CCC5(CC4)OCCO5)n3n2)cc1	–	inactive: 7.48%
CCOc1ccc(CNC(=O)C2Cc3cc(S(=O)(=O)N4CCCC4)ccc3N2C(C)=O)cc1 (configuration not stated)	–	inactive: 9.46%
CCOC(=O)N1CCN(c2ccncc2S(=O)(=O)N2CCCCC2)CC1	–	inactive: -10.8%

SMILES	Potency	activity change, positive = activation
COc1ccc(Cc2nnc(N/N=C/c3ccccc3O)[nH]c2=O)cc1OC	inconclusive [activator, partial curve, poor fit]	–
COC(=O)c1ccc(-c2ncc(-c3cccc4ccccc34)o2)cc1	inconclusive [activator, partial curve, poor fit]	–
N#C/C(=N\Nc1ccccc1)C(=N)N1CCCCCC1	–	inactive: 8.18%
CC1(C)CC(=O)C(C=Nc2ccc(O)c(N=CC3=C(O)CC(C)(C)CC3=O)c2)=C(O)C1	–	inactive: 5.36%
CC(=O)c1ccc(-c2ccc(-c3cc(=O)oc4c(C(C)C)ccc(C)c34)cc2)cc1	–	inactive: 0.551%
Oc1cccc(C(Nc2nccs2)c2ccc3cccnc3c2O)c1 (configuration not stated)	inconclusive [activator, single point]	–
O=C(CNC(=O)c1ccc(Br)o1)NNC(=O)c1ccc(Cl)cc1	–	inactive: -1.47%
COc1ccc(-c2nc(CS(=O)CC(=O)NCCC3=CCCCC3)c(C)o2)cc1 (configuration not stated)	inconclusive [activator, partial curve, poor fit]	–
CCOC(=O)c1cnc2c(OC)cccc2c1Nc1ccc2c(c1)OCCO2	–	inactive: 22.7%
COc1ccc(-c2coc3cc(O[C@@H]4O[C@H](CO)[C@@H](O)[C@H](O)[C@H]4O)c(OC)cc3c2=O)cc1	inconclusive [activator, partial curve, poor fit]	–
O=C(Cc1cccs1)Nc1nc2c(s1)CCCC2	inconclusive [activator, full curve, poor fit]	–
Cn1cccc1/C=N/NC(=O)c1cccc(OC(F)(F)C(F)F)c1	inconclusive [activator, partial curve, poor fit]	–
O=C(NCCc1ccccc1)Nc1cccc(Cl)c1	inconclusive [activator, partial curve]	–
O=c1c([N+](=O)[O-])cccn1Cc1ccc(F)cc1Cl	inconclusive [activator, partial curve, poor fit]	–
Cc1ccc2oc(Nc3nc(-c4ccccc4)cc(=O)[nH]3)nc2c1	–	inactive: 14.4%
O=C1c2ccccc2CN1CCSC(=S)N1CCSCC1	inconclusive [activator, partial curve, poor fit]	–
O=C(NCc1ccc(-c2nc3ccccc3s2)cc1)c1cc2ccccc2o1	inconclusive [activator, partial curve, poor fit]	–
CCOC(=O)c1nnc(-c2ccc(C)cc2)nc1Oc1ccccc1Cl	–	inactive: 5.71%
COc1ccccc1CNC(=O)C(=O)NCC1CCCO1 (configuration not stated)	inconclusive [activator, full curve, poor fit]	–
Cc1oc2c(CN3CCCC(C)C3)c(O)ccc2c(=O)c1-c1ccccc1 (configuration not stated)	–	inactive: -1.92%
CC(=Nc1ccccc1O)c1sc2ccccc2c1O	inconclusive [activator, single point]	–
C/C(CC(=O)NCc1ccccc1)=N\NC(=O)c1cnccn1	inconclusive [activator, partial curve, poor fit]	–
CCOC(=O)N1CCN(C(=O)c2cc(COc3cccc(C(F)(F)F)c3)on2)CC1	inconclusive [activator, single point]	–

SMILES	Potency	activity change, positive = activation
Cc1nnc(NC(=O)/C=C/c2ccco2)s1	inconclusive [activator, single point]	–
Cc1ccc(NC(=O)CC2CCCC2)c(Br)c1	inconclusive [activator, full curve, poor fit]	–
CCOc1ccc(NC(=O)CC2C(=O)N(CC)C(=S)N2CCN2CCOCC2)cc1 (configuration not stated)	–	inactive: -5.33%
CCN(CCn1cccn1)C(=O)c1cc(COc2cc(C)ccc2C)on1	inconclusive [activator, single point]	–
Cc1ccc2nc(Cl)c3cc(C(=O)N(CCN(C)C)Cc4ccco4)sc3c2c1	–	inactive: 10.5%
CCC(C)NC(=O)Cn1nc([N+](=O)[O-])c(Cl)c1C (configuration not stated)	inconclusive [activator, partial curve]	–
Cc1cc(C)c2nc(NC(=O)c3ccc([N+](=O)[O-])o3)sc2c1	inconclusive [activator, single point]	–
COC(=O)c1ccc(NC(=O)C2C3C=CC(O3)C2C(=O)O)cc1 (configuration not stated)	inconclusive [activator, full curve, poor fit]	–
COc1ccc(S(=O)(=O)Nc2cccc(-c3ccc(N4CCCCCC4)nn3)c2)c(OC)c1	–	inactive: 2.09%
Cc1cc(C)c2oc(-c3ccc(C)c(NC(=S)NC(=O)c4cccs4)c3)nc2c1	inconclusive [activator, partial curve]	–
CCOCCCNC(=S)NCCc1ccccc1	inconclusive [activator, partial curve, poor fit]	–
Cc1noc(C)c1C(=O)OCC(=O)N(C)C1(C#N)CCCCC1	inconclusive [activator, full curve, poor fit]	–
COc1cccc(C(=O)c2cc3ccc(O)cc3oc2=O)c1	inconclusive [activator, single point]	–
COCCCN=C(c1ccco1)n1c(=S)nc(-c2ccco2)n(CCCOC)c1=S	inconclusive [activator, partial curve, poor fit]	–
Cc1ccc(-c2nc(Nc3ccc(O)cc3)c3ccccc3n2)cc1	–	inactive: 9.04%
COc1ccc(CNc2ccc(C(=O)O)cc2)cc1	inconclusive [activator, partial curve, poor fit]	–
Cn1c(N)c(S(=O)(=O)N2CCCC2)c(=O)n(C)c1=O	–	inactive: 8.5%
Cc1[nH]n(-c2ccccc2)c(=O)c1/C=N/NC(=O)c1cccc([N+](=O)[O-])c1	–	inactive: 10.9%
CCC(CO)(CO)N(CC(=O)Nc1ccc(OC)cc1)CC(=O)Nc1ccc(OC)cc1	–	inactive: -3.61%
CN(C)c1ccc(C(CNS(=O)(=O)c2ccc([N+](=O)[O-])cc2)N2CCCC2)cc1 (configuration not stated)	inconclusive [activator, partial curve, poor fit]	–
CC(C)c1cc(C(=O)OCC(=O)NC(=O)NCc2ccco2)c(O)c(C(C)C)c1	–	inactive: -11.1%
